Data taken from PubChem BioAssay AID1745845 (National Center for Advancing Translational Sciences (NCATS), 2022).
About 2,600 (0.72%) of roughly 360,000 compounds were called active. This list was built around the results that the source calls inconclusive (neither active nor inactive); the mix of calls is not that of the screen. Calls follow the shape of the dose curve; as a rule, active = well fitted inhibition curve with a large enough effect; inconclusive = small, poorly fitted or top-dose-only effect; inactive = no such curve, though single readings can be large or run the other way. A potency beside an inconclusive call is a rough fit, not a confirmed value.
% is scaled to controls: 0 for no effect and ±100 for the full control effect; potency is read from the fitted curve at half-maximal effect; tags tell the direction and shape of the fitted curve.

Test: Primary qHTS for Inhibitors of ATXN expression; also: nearly all actives have a fitted effect of over 55% in size
Conditions: HEK-293 ATXN2-luciferase reporter, luminescence, 24 h; activity change, negative = inhibition: at 57 µM (top of the series)
How it was run: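 qHTS (up to 57 uM final) was run with 24 h compound exposure of reporter cells at 37 °C. Each well was multiplexed: SteadyGlo luminescence measured ATXN2-luciferase expression after a fluorogenic Gly-Phe-AFC viability readout (25 uM final).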
With `Cc1nc2ccc(S(=O)(=O)Nc3cccc(-c4nc5cccnc5s4)c3C)cc2s1` the “activity change, negative = inhibition” value was inactive: -27.8%.
In the case of `Cc1nnc(SCC(=O)N/N=C/c2ccc(-c3ccc(C)c(Cl)c3)o2)s1`, the Potency is reported as inconclusive: 39.8 µM [inhibitor, single point].
For `CN(Cc1ccccc1)c1nc(N)nc(Cl)c1C=O`, the Potency was inconclusive: 33.6 µM [inhibitor, partial curve, poor fit].
With `C=CCOCC(O)Cn1c(N2CCCC2)nc2c1c(=O)n(C)c(=O)n2C` (stereo not drawn) the “activity change, negative = inhibition” value was inactive: -10.9%.
For `O=C(COc1ccc(Nc2ccccc2)cc1)Nc1ccncc1`, the Potency was inconclusive: 12.6 µM [inhibitor, single point].
With `Cn1c(=O)c2cc(NC(=O)CCc3ccc(O)cc3)ccc2n1Cc1cccc(C(F)(F)F)c1` the Potency was inconclusive: 0.316 µM [inhibitor, full curve, poor fit].
In the case of `CCC(O)c1cc2c(cc1NC(=O)c1cccc(Br)c1)OCCO2` (stereo not drawn), the “activity change, negative = inhibition” value is reported as inactive: -23.5%.
For `Cc1cccc2cc(-c3ccccc3)c(-c3ccccc3)c[n+]12`, the Potency was inconclusive: 28.2 µM [inhibitor, single point].
For `Cc1cc(C)c(C)c(OCCCn2ccnc2)c1`, the “activity change, negative = inhibition” value was inactive: -7.27%.
With `CCOC(=O)C1(CCOc2ccccc2)CCN(Cc2ccc(F)c(OC)c2)CC1` the Potency was inconclusive: 15.8 µM [inhibitor, partial curve, poor fit].
For `COc1ccccc1NC(=O)c1c(NCc2ccc(C)o2)sc2c1CCC(C)C2` (stereo not drawn), the Potency was inconclusive: 39.8 µM [inhibitor, single point].
With `CC(Oc1ccc(Cl)cc1)C(=O)NNC(=S)NC(=O)c1ccco1` (stereo not drawn) the Potency was inconclusive: 37.7 µM [inhibitor, single point].
For `O=C(Nc1ccc(F)cc1F)N1CCCN(c2ccc([N+](=O)[O-])cn2)CC1`, the “activity change, negative = inhibition” value was inactive: -9.42%.
With `CSc1nsc(/C=C/Nc2ccc(F)cc2F)c1C#N` the Potency was inconclusive: 1.5 µM [inhibitor, single point].
For `COc1ccc(/C=N/NC(=O)c2ccccc2)cc1CN1CCN(c2ccc(F)cc2)CC1`, the “activity change, negative = inhibition” value was inactive: 10.6%.
With `O=C(NNc1ccc(Cl)cc1)c1cccs1` the Potency was inconclusive: 0.251 µM [inhibitor, full curve, poor fit].
For `COC(=O)C(C)NC(=O)C12CC3CC(C1)CC(c1ccc(C)cc1)(C3)C2` (stereo not drawn), the “activity change, negative = inhibition” value was inactive: 2.71%.
In the case of `CCCC(=O)C1=C(O)C(C(=O)OC)C(C)(C)CC1=Nc1cccc2ccccc12` (stereo not drawn), the “activity change, negative = inhibition” value is reported as inactive: -8.9%.
In the case of `O=c1[nH]c2ccc(NCc3ccccc3OCc3ccc(Cl)cc3)cc2[nH]1`, the Potency is reported as inconclusive: 22.4 µM [inhibitor, single point].
With `O=C/C=C/c1c(-c2ccccc2)cc2oc3ccccc3cc1-2` the activity change, negative = inhibition was inconclusive: -47.4% [inhibitor].
In the case of `C[C@H]1CN([C@@H](C)CO)C(=O)CCCn2nncc2CO[C@H]1CN(C)C(=O)Nc1ccnc(N2CCOCC2)c1`, the “activity change, negative = inhibition” value is reported as inactive: -18.7%.
For `O=C(COC(=O)c1ccc(F)cc1F)NC(=O)Nc1ccc2c(c1)OCCO2`, the “activity change, negative = inhibition” value was inactive: 28.9%.
For `O=C(Nc1ccc(F)cc1)c1cc(-c2ccccn2)nc2c(Cl)cccc12`, the Potency was inconclusive: 31.6 µM [inhibitor, partial curve, poor fit].
For `C=C1C(=O)[C@]23C[C@H]1CC[C@H]2[C@]1(C)[C@@H](OC(C)=O)CC[C@@](C)(C(=O)O)[C@H]1C[C@@H]3OC(C)=O`, the Potency was active: 17.8 µM.
With `COc1ccc(-c2nc3c4ccccc4ccn3c2Cc2ccsc2)cc1OC` the “activity change, negative = inhibition” value was inactive: 53.6%.
With `Cc1c(C(=O)NN)nn(-c2ccc(Cl)cc2)c(=O)c1C#N` the Potency was inconclusive: 9.47 µM [inhibitor, partial curve, poor fit].
For `COc1ccc(/C=C/C(=O)c2ccccc2)cc1Cn1nnc2ccccc21`, the Potency was inconclusive: 39.8 µM [inhibitor, single point].
With `O=C(CCCN1C(=O)/C(=C/c2ccccc2Cl)SC1=S)NNC(=O)c1ccccc1Cl` the Potency was inconclusive: 39.8 µM [inhibitor, single point].
With `CCCCC(=O)Nc1ccc(C(=O)N(CC)c2ccccc2C)cc1` the Potency was inconclusive: 5.32 µM [inhibitor, partial curve, poor fit].
For `O=C(NCC(c1cccs1)N1CCOCC1)c1cccc([N+](=O)[O-])c1` (stereo not drawn), the “activity change, negative = inhibition” value was inactive: -11.4%.
In the case of `CC(C)(C)CNC(CO)C12CC3CC(CC(C3)C1)C2` (stereo not drawn), the “activity change, negative = inhibition” value is reported as inactive: -10.5%.
In the case of `O=S(=O)(N(Cc1ccccc1)[C@H](CO)Cc1ccccc1)N(Cc1ccccc1)[C@H](CO)Cc1ccccc1`, the Potency is reported as inconclusive: 39.8 µM [inhibitor, partial curve, poor fit].
With `COc1ccc(CNC(=O)c2c(C)oc3c2C(=O)c2ccccc2C3=O)cc1` the Potency was inconclusive: 2.24 µM [inhibitor, partial curve, poor fit].
With `CC(C)(C)c1ccccc1OCC(O)CN1CCN(c2ccccn2)CC1` (stereo not drawn) the activity change, negative = inhibition was inconclusive: -46.8% [inhibitor].
With `CC(C)C[C@H]1CN=C(Nc2ccccc2)N1CCCC1CCCCC1` the Potency was active: 25.1 µM.
For `CC12CCC(=O)N1C(C(=O)NCCc1ccccc1)CS2` (stereo not drawn), the “activity change, negative = inhibition” value was inactive: 30%.
In the case of `COc1cccc(OCCCn2ccnc2)c1`, the activity change, negative = inhibition is reported as inconclusive: -42.7% [inhibitor].
With `COc1ccc(-n2c(=O)c3c4c(sc3n(Cc3cc(C)ccc3C)c2=O)CN(C(C)=O)CC4)c(OC)c1` the Potency was inconclusive: 7.08 µM [inhibitor, partial curve].
In the case of `CCN(CC)CCCNc1nc2cc(OC)c(OC)cc2c2nc(-c3cccnc3)nn12`, the “activity change, negative = inhibition” value is reported as inactive: -12.8%.
In the case of `CCN1C/C(=C\c2cccc([N+](=O)[O-])c2)C(=O)/C(=C/c2cccc([N+](=O)[O-])c2)C1`, the Potency is reported as active: 3.55 µM.
For `Cc1cccc(OCCSc2nc3ncnc(N)c3[nH]2)c1`, the Potency was inconclusive: 39.8 µM [inhibitor, single point].
With `Cc1cc(C)nc(SCC(=O)N/N=C/c2cccc([N+](=O)[O-])c2)n1` the Potency was inconclusive: 18.9 µM [inhibitor, partial curve, poor fit].
With `C/C(=N\NC(=O)C1COc2ccccc2O1)c1ccccn1` (stereo not drawn) the Potency was active: 3.55 µM.
With `O=C(CSc1nc2ccccc2nc1SCC(=O)N1CCCCC1)N1CCCCC1` the Potency was inconclusive: 39.8 µM [inhibitor, partial curve, poor fit].
With `Cc1ccc(/C=N/NC(=O)C2COc3ccccc3O2)s1` (stereo not drawn) the “activity change, negative = inhibition” value was inactive: 5.59%.
In the case of `Cc1noc2ncnc(N3CCN(c4cccc(Cl)c4)CC3)c12`, the Potency is reported as inconclusive: 37.7 µM [inhibitor, single point].
For `COc1cccc(/C=N/Nc2ncc(C(F)(F)F)cc2Cl)c1O`, the Potency was inconclusive: 20 µM [inhibitor, partial curve, poor fit].
For `Cc1ccc(S(=O)(=O)Nc2ccc3c(c2)CC(=O)N([C@H](C)CO)C[C@H](C)[C@H](CN(C)Cc2ccc4c(c2)OCO4)O3)cc1`, the Potency was inconclusive: 39.8 µM [inhibitor, single point].
In the case of `Cc1ccc(COC[C@H](CC(C)C)N2CCN(C(=O)c3cccc(C(F)(F)F)c3)CCC2=O)cc1`, the Potency is reported as inconclusive: 31.6 µM [inhibitor, single point].
For `Nc1nc2c(ncn2[C@H]2C[C@H](O)[C@@H](CO)O2)c(=O)[nH]1`, the “activity change, negative = inhibition” value was inactive: -2.12%.
In the case of `O=C(Cn1c(=O)n(-c2ccccc2)c(=O)c2sc3ccccc3c21)NC1CCCC1`, the Potency is reported as inconclusive: 39.8 µM [inhibitor, partial curve, poor fit].
For `CC(C)c1ccc(OCC(=O)NNC(=O)c2cnccn2)cc1`, the Potency was inconclusive: 39.8 µM [inhibitor, single point].
In the case of `Cc1cccc(N2CCN(C(=O)c3nn(C)c4c3CS(=O)(=O)c3ccccc3-4)CC2C)c1` (stereo not drawn), the Potency is reported as inconclusive: 22.4 µM [inhibitor, single point].
With `Cc1cc(C)c2c(=N)c3ccccc3n(CCCCCCCCn3c4ccccc4c(=N)c4c(C)cc(C)nc43)c2n1` the Potency was active: 28.2 µM.
For `Nc1[nH]n2c(=O)c3c(nc2c1N=Nc1ccccc1)CCCC3`, the Potency was inconclusive: 22.4 µM [inhibitor, partial curve, poor fit].
In the case of `O=C(Nc1ccc(-c2nc3ccccc3o2)cc1)C1CCCO1` (stereo not drawn), the Potency is reported as inconclusive: 39.8 µM [inhibitor, single point].
In the case of `CN(CC(=O)Nc1ccc(Cl)cc1)C(=O)CCc1nc2sc3c(c2c(=O)[nH]1)CCCC3`, the Potency is reported as inconclusive: 35.5 µM [inhibitor, single point].
In the case of `O=C(NCC(=O)N1CCN(c2ccc(C(F)(F)F)cn2)CC1)c1ccc(Br)o1`, the Potency is reported as inconclusive: 17.8 µM [inhibitor, partial curve, poor fit].
With `Cc1cc(C)nc(Nc2nc(C(N)Cc3ccc(Cl)cc3)cs2)n1` (stereo not drawn) the Potency was inconclusive: 25.1 µM [inhibitor, single point].
For `COc1ccccc1C(=O)Nc1ccc(CN2CCCCC2)cc1`, the “activity change, negative = inhibition” value was inactive: 12.5%.
In the case of `CC(CNCCCn1cnc2c(OCc3ccccc3)ncnc21)c1ccccc1` (stereo not drawn), the Potency is reported as inconclusive: 39.8 µM [inhibitor, single point].
In the case of `COc1ccc(CCNc2ncnc3c2oc2ccccc23)cc1OC`, the Potency is reported as active: 28.2 µM.
In the case of `COc1ccc(C(=O)C=Cc2cccs2)c(O)c1`, the “activity change, negative = inhibition” value is reported as inactive: 41.1%.
In the case of `O=C(CN(C(=O)c1ccccc1Cl)C1CCCCC1)Nc1ccc(Cl)c([N+](=O)[O-])c1`, the Potency is reported as inconclusive: 28.2 µM [inhibitor, single point].
With `CCCC(C)Sc1nc2c([nH]1)c(=S)n(C)c(=O)n2C` (stereo not drawn) the “activity change, negative = inhibition” value was inactive: -29.9%.
In the case of `COCCN(C(=O)Cc1cccs1)C(C(=O)NCc1ccc(OC)cc1)c1ccc(C(C)C)cc1` (stereo not drawn), the Potency is reported as inconclusive: 39.8 µM [inhibitor, single point].
For `CCCCCCN1C[C@@H](O)[C@H](n2cc(C3CC3)nn2)C[C@@H]1c1ccccc1`, the Potency was inconclusive: 39.8 µM [inhibitor, single point].
In the case of `CC1=C(C(=O)N(C(C)C)C(C)C)CC(CC(=O)NCc2cccc3ccccc23)C(=O)N1Cc1ccc(F)cc1` (stereo not drawn), the Potency is reported as inconclusive: 25.1 µM [inhibitor, single point].
